Measurements taken from PubChem BioAssay AID2100 (National Center for Advancing Translational Sciences (NCATS), 2009).
The whole screen tested about 300,000 compounds, of which about 1,200 (0.4%) were called active. Inconclusive results, whose numbers are uncertain, are shown with a selection of clear calls. Calls follow the shape of the dose curve; as a rule, active = well fitted inhibition curve with a large enough effect; inconclusive = small, poorly fitted or top-dose-only effect, or another doubt; inactive = no such curve, though single readings can be large or run the other way. A potency beside an inconclusive call is a rough fit, not a confirmed value.

molecular target: Lysosomal alpha-glucosidase (Homo sapiens) (UniProt P10253); assay: qHTS Assay for Inhibitors and Activators of Human alpha-Glucosidase Cleavage of Glycogen; details: recombinant GAA, glycogen substrate, Amplex Red glucose oxidase fluorescence; series mostly up to 76.4 µM
Method in brief: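 Recombinant human enzyme (4 nM); glycogen substrate; 37 C, 40 min, pH 5.0. Readout: coupled glucose oxidase/Amplex Red fluorescence.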
Potency is read from the fitted curve at half-maximal effect.

Structure (SMILES) | Potency
Cc1cc(-c2csc(NC(=O)c3cc4ccccc4o3)n2)c(C)n1C | inconclusive: 20 µM [activator, partial curve]
CCCSc1cc(NCCOC(C)=O)c([N+](=O)[O-])c2nonc12 | inactive
Cc1ccccc1S(=O)(=O)Oc1cccc2c(O)cccc12 | inconclusive: 31.6 µM [inhibitor, single point]
Cc1[nH]c2ccccc2c1/C=N/NS(=O)(=O)c1ccccc1 | inconclusive: 12.5 µM [inhibitor, partial curve]
Cc1ccc(-c2nc3ccccn3c2Nc2ccc3c(c2)OCO3)o1 | inconclusive: 8.91 µM [inhibitor, full curve]
COc1ccc(-n2cc(CNCCc3nc(C)cc(C)n3)c(-c3ccccc3Cl)n2)cc1 | inactive
Cn1ncc(N=Cc2c(O)ccc3ccccc23)c1C(=O)Nc1cccc(Cl)c1 | inactive
NC(=S)N/N=C/c1ccccc1OCCSc1ccc(Cl)cc1 | inconclusive: 25.1 µM [inhibitor, single point]
CC(=O)c1ccc(OCCCCCCCOc2ccc(C(C)=O)cc2)cc1 | inconclusive: 39.8 µM [inhibitor, single point]
O=C(O)c1cccc(N/N=C/c2ccc(OC(F)(F)F)cc2)c1 | inconclusive: 28 µM [inhibitor, single point]
Cc1ccc(Nc2c(-c3ccccn3)nc3ccc(C)cn23)cc1 | inconclusive: 8.91 µM [inhibitor, partial curve]
CC(C)c1ccc(Nc2c(-c3ccco3)nc3ccccn23)cc1 | inconclusive: 39.8 µM [inhibitor, partial curve]
CNc1nc2c3ccccc3n(C(C)=O)c2s1 | active: 24.9 µM
Oc1ccc(N2CCN(c3ncnc4sc(-c5ccccc5)cc34)CC2)cc1 | inconclusive: 3.52 µM [inhibitor, full curve]
CCN(CCN(C)C)C(=O)C1CCN(S(=O)(=O)c2c(C)noc2/C=C/c2ccccc2F)CC1 | inactive
O=C(OC(C(=O)NC1CCCCC1)c1ccccc1)c1ccco1 (stereo not given) | inconclusive: 6.31 µM [inhibitor, single point]
Cc1csc(Nc2ccc(C(=O)O)cc2)n1 | inconclusive: 35.5 µM [inhibitor, single point]
O=[N+]([O-])c1ccc(Cl)c(C2Nc3cccc4cccc(c34)N2)c1 | inconclusive: 25.1 µM [inhibitor, partial curve, poor fit]
CCNc1sc(C(=O)c2cccs2)c(N)c1-c1nc2ccccc2s1 | inconclusive: 28 µM [inhibitor, partial curve]
O=C(Oc1cccc2c(O)cccc12)c1ccccc1 | active: 28.2 µM
O=C(NNC(=S)Nc1ccc(Cl)cc1)c1cccs1 | inconclusive: 35.5 µM [inhibitor, single point]
COc1ccc(NC(=S)N2CCC(c3nc4ccccc4o3)CC2)c(OC)c1 | inconclusive: 15.7 µM [inhibitor, partial curve]
CCOc1cc(/C=N/Nc2cccc(C(=O)O)c2)ccc1OC(=O)c1ccccc1 | inconclusive: 39.8 µM [inhibitor, partial curve]
O=C(CC1S/C(=N/N=C2CCCCCC2)NC1=O)Nc1ccc(Br)cc1F (stereo not given) | inconclusive: 28.2 µM [inhibitor, single point]

Structure (SMILES) | Potency
C/C(=N\Nc1ccc(C(=O)O)cc1)c1ccc(Cl)s1 | inconclusive: 10 µM [inhibitor, full curve]
Cc1ccc2cc3c(N)[nH]nc3nc2c1 | inconclusive: 14.1 µM [inhibitor, partial curve]
Cc1ccc(Nc2nc(-c3ccccc3)c(CC(=O)O)s2)cc1 | inconclusive: 11.1 µM [inhibitor, partial curve]
O=C1c2ccccc2C(=O)N1/N=C/c1ccc(O)c(O)c1O | inconclusive: 22.4 µM [inhibitor, partial curve]
Nc1c2c(nc3ccccc13)N(C1CCCCC1)CC2 | inconclusive: 50.1 µM [activator, single point]
NNC(=O)c1oc2nc(-c3ccco3)cc(-c3ccco3)c2c1N | inconclusive: 22.4 µM [inhibitor, partial curve]
O=C(NN=C1C2CC3CC(C2)CC1C3)c1ccncc1 | inconclusive: 20 µM [inhibitor, single point]
O=C(NNc1cccc(Cl)c1)c1cccnc1Oc1ccccc1 | inconclusive: 12.6 µM [inhibitor, partial curve]
Cc1ccc(Nc2c(-c3ccccc3O)nc3cc(C)ccn23)cc1 | inconclusive: 12.6 µM [inhibitor, partial curve]
CN1C(=O)C(CCC(N)=O)NC1=S (stereo not given) | inconclusive: 35.5 µM [inhibitor, partial curve]
O=C(CSc1ccc(Cl)cc1)N/N=C/c1ccc([N+](=O)[O-])o1 | inactive
CCn1c(NCc2ccc(N(C)C)cc2)nc2ccccc21 | inconclusive: 15.8 µM [inhibitor, partial curve]
Cc1cc(C)cc(NC(=O)Nc2cccs2)c1 | inconclusive: 10 µM [inhibitor, partial curve]
NC(=O)c1ccc(-n2nnnc2SCC(=O)c2ccc(O)c(O)c2)cc1 | inconclusive: 5.01 µM [inhibitor, full curve]
Cn1c(SCC(=O)N/N=C/c2ccc(O)c(O)c2)nc2ccccc21 | active: 8.91 µM
COc1cccc(OC)c1OCc1cc(C2C3CCCC=C3C(C#N)=C(N)C2(C#N)C#N)c(C)cc1C (stereo not given) | inactive
O=C(NNS(=O)(=O)c1ccccc1)c1cc2cc3ccccc3nc2s1 | active: 22.4 µM
CN1C(=S)SC(N(O)C(=O)Nc2cccc3ccccc23)C1(C)C (stereo not given) | inconclusive: 24.9 µM [inhibitor, single point]
CC(C)N(c1nnc(N)s1)C(C)C | inconclusive: 28.2 µM [inhibitor, partial curve]
O=c1[nH]c2ccc(NCc3ccccc3F)cc2[nH]1 | inconclusive: 6.31 µM [inhibitor, partial curve]
Cc1cc(Nc2ccccc2)n(CCC#N)n1 | active: 19.8 µM
CCCCn1c(=O)[nH]c(=O)c2c1nc(-c1ccc3ccccc3c1)n2CC | inactive
N#Cc1c(N(CCO)CCO)nc(N)c2c(N)nc3c(c12)CC(=O)N3Cc1cccs1 | inconclusive: 44.7 µM [activator, single point]
Cc1ccc(S(=O)(=O)NNc2ccccc2)cc1 | inconclusive: 22.4 µM [inhibitor, partial curve]

Structure (SMILES) | Potency
Cc1ccccc1NC(=O)CC1SC(=O)N(c2ccccc2)C1=O (stereo not given) | active: 24.9 µM
CCOC(=O)c1cnc2ccccc2c1Nc1ccc(N2CCOCC2)cc1 | inconclusive: 28.2 µM [inhibitor, single point]
CC(=O)Nc1cccc(/C(C)=N/Nc2nc3ccccc3s2)c1 | inconclusive: 20 µM [inhibitor, partial curve]
Clc1ccc(-c2nc3ccccn3c2Nc2ccc3c(c2)OCCO3)s1 | active: 10 µM
COc1cccc(Nc2n[nH]c(=S)s2)c1 | inconclusive: 28 µM [inhibitor, partial curve]
Oc1ccccc1/C=N/Nc1nn[nH]n1 | inconclusive: 15.7 µM [inhibitor, partial curve]
COc1ccc2[nH]c(C(=O)O)c(NS(=O)(=O)c3ccc(C)cc3C)c2c1 | inconclusive: 7.08 µM [inhibitor, single point]
O=C(COC(=O)c1cnc(Cl)c(Cl)c1)NCc1ccco1 | inconclusive: 50.1 µM [inhibitor, single point]
COc1ccccc1NS(=O)(=O)c1cc(NC(=O)c2cc[n+]([O-])cc2)ccc1N1CCCC1 | inconclusive: 4.43 µM [inhibitor, full curve, poor fit]
CCn1cc(C2Nc3ccccc3C(=O)N2O)c(C)n1 (stereo not given) | inconclusive: 20 µM [inhibitor, partial curve]
Cc1cc(OCCOc2cccc3cccnc23)c(C)cc1Cl | inconclusive: 39.5 µM [inhibitor, single point]
C/C(=N\NC(=O)c1ccccn1)C12CC3CC(CC(C3)C1)C2 | inconclusive: 25.1 µM [inhibitor, single point]
NNC(=O)c1ncoc1-c1ccc(Cl)cc1 | inconclusive: 15.8 µM [inhibitor, partial curve]
CCCn1cc(S(=O)(=O)c2cc(C)ccc2C)c(=O)c2cc(F)c(N3CCCCCC3)cc21 | inactive
N/C(=N\OC(=O)Cc1ccc([N+](=O)[O-])cc1)c1ccccn1 | inconclusive: 11.2 µM [inhibitor, single point]
Cc1ccc2c(=O)cc(C(=O)Nc3c(C(=O)c4ccccc4)oc4ccccc34)oc2c1C | inconclusive: 6.31 µM [inhibitor, single point]
CCC(C)NC(=O)c1ccc2c(c1)N=C(C)c1cc(C)ccc1S2 (stereo not given) | inactive
N/C(=N\OC(=O)c1ccccc1Cl)c1ccccc1 | inconclusive: 39.8 µM [inhibitor, single point]
CC(C)c1ccc(N2C(=O)CC(NNC(=O)c3cccnc3)C2=O)cc1 (stereo not given) | inconclusive: 28.2 µM [inhibitor, single point]
COc1ccccc1NC1=NCC(=O)N1Cc1ccccc1 | inconclusive: 7.03 µM [inhibitor, single point]
CN(C)c1ccc(NC(N)=S)cc1 | inconclusive: 17.8 µM [inhibitor, partial curve]
CC(Nc1ccc(-c2nc(-c3ccco3)no2)cc1[N+](=O)[O-])c1ccccc1 (stereo not given) | inactive
